The name of at least one read-out is uncertain.
System: Arabidopsis root hairs
Assay: Root hair number and length quantification
Format: in vivo, Arabidopsis thaliana
Conditions: Table 5; dose not given
Procedure: All Arabidopsis plant experiments were performed using the Arabidopsis thaliana Columbia-0 background. The Arabidopsis pSPX1::GUS line is described in the Plant Journal 2008, 54: 965-975. For rice, the cultivar Nipponbare was used. For maize, the cultivars DKC 2931 and B104 were used for regular pot experiments and sand-based pot experiments, respectively. For soybean, the cultivar Primus was used. […] The medium was solidified due to the addition of 0.6% Gelrite, unless stated otherwise. In case of vertical plates (root length and root hair measurements), the medium was supplied with 0.5% of sucrose and 1 μM (low phosphate, 1 μM KH2PO4, 9.9 mM KCl), 10 μM (low phosphate 10 μM KH2PO4, 9.9 mM KCl) or 1.25 mM KH2PO4 (high phosphate). Arabidopsis seeds were stratified for 2 days at 4° C. before germination. Seedlings were germinated in climate-controlled growth chambers at 22° C. under continuous light (100 μmol m^−2 s^−1). Husked rice seeds were germinated on wetted Whatman paper for 2 days at 37° C. and then transferred to Sterivent boxes or square Petri dishes with solid medium. Maize and soybean seeds were wetted 24 hours at room temperature prior to sowing in pots.
Roots were imaged using a stereomicroscope or a VHX-6000. Number and length of the root hairs parallel to the medium surface was determined at 4 to 6 mm above the root meristem. Root hair length was measured using the ImageJ software.

Structure (SMILES) | Total root hair length per root (in % compared to the control) [%]
CC1CN(CC(=O)c2c(N)n(C)c(=O)n(C)c2=O)c2ccccc2O1 (stereo not shown) [Compound 8, 6-amino-1,3-dimethyl-5-[2-(2-methyl-2,3-dihydro-1,4-benzoxazin-4-yl)acetyl]pyrimidine-2,4-dione] | 657
Cc1ccc2c(c1)OC(C)CN2CC(N)=O (stereo not shown) [Compound 8.14] | 884
CN(Cc1ccc(Br)s1)C(=O)CN1C(=O)CCOc2ccccc21 [Compound 8.14.2] | 455
COc1ccc([N+](=O)[O-])cc1NCC(=O)N1CCCC1c1cccs1 (stereo not shown) [Compound 8.14.5] | 176
COc1ccccc1N(C)CC(=O)c1c(N)n(C)c(=O)n(C)c1=O [Compound 8.7] | 641
Cn1c(N)c(C(=O)CN2CCOc3ccccc32)c(=O)n(C)c1=O [Compound 8.10] | 596
COc1ccc(C)cc1NCC(N)=O [Compound 8.14.6] | 920
COc1ccc(NC(C)=O)cc1NCC(=O)N1c2ccccc2NC(=O)CC1C (stereo not shown) [Compound 8.14.3] | 358
Cc1ccc2c(c1)N(CC(=O)c1c(N)n(CC(C)C)c(=O)n(C)c1=O)CC(C)O2 (stereo not shown) [Compound 8.15] | 801
Nc1c(C(=O)CN2CCOc3ccccc32)c(=O)[nH]c(=O)n1C1CC1 [Compound 8.12] | 341
O=C(CN1CC(C(=O)N2CCCCC2)Oc2ccccc21)N1CC=C(c2ccccc2)CC1 (stereo not shown) [Compound 8.14.1] | 172
COc1ccccc1NCC(=O)c1c(N)n(C)c(=O)n(C)c1=O [Compound 8.2] | 600
CCCn1c(N)c(C(=O)CN2CCOc3ccccc32)c(=O)[nH]c1=O [Compound 8.11] | 562

— patent US20240206469A1, “PHOSPHORUS USE EFFICIENCY ENHANCERS AS PLANT GROWTH PROMOTORS” (EUROCHEM ANTWERPEN, priority 2021, published 2024)
